Screen size: about 48,000 compounds; about 1,200 (2.5%) were called active. Inconclusive results (about 2%) are left out.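 Rule for the calls: active = activation of at least 60% and not above a set upper limit (about 1 call in 100 departs from these limits); inconclusive = activation of 40% to 60%, or above that upper limit; inactive = activation under 40%.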 Some of the results follow.
What follows are compounds tested against Probable G-protein coupled receptor 32 (Homo sapiens) (UniProt O75388) (assay: qHTS for Agonists of Human Resolvin D1 Receptor DRV1). Conditions: CHO-K1 GPR32 beta-arrestin PathHunter luminescence, 90 min; at 76.9 µM; hits give high values; zero percent set by DMSO-only wells.
Method in brief: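 Using DMSO wells as EC0, agonist-induced signal was taken as chemiluminescence from beta-Gal reconstituted upon beta-arrestin recruitment to GPR32 in CHO-K1 cells after 90 min compound treatment.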
Note: 0% is about no effect.

UniProt O75388, sequence (O75388 whole entry, looked up): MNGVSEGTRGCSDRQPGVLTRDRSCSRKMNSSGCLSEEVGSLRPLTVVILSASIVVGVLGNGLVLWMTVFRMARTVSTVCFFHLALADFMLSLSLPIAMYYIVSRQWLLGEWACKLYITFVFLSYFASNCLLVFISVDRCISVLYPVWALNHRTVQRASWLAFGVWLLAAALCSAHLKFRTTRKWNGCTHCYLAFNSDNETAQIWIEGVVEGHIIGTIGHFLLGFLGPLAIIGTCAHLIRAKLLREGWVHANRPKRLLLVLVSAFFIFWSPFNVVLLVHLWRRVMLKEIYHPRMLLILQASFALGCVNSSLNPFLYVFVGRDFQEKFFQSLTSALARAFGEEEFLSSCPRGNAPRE

| SMILES | activation |
| --- | --- |
| CCOc1c(Br)cc(C2CC(=O)Nc3cc4c(cc32)OCO4)cc1OC (centres undefined) | inactive: -24.8% |
| COc1ccc(CCNC(=O)c2cccc(Nc3nc4ccccc4nc3-n3nc(C)cc3C)c2)cc1OC | inactive: 1.4% |
| OCC1O[C@H]([S-])[C@H](O)[C@@H](O)[C@@H]1O.[Au+] (some centres undefined) | inactive: 2.01% |
| Cc1ccc2c(=O)c(C(=O)c3ccc(F)cc3)cn(CC(=O)Nc3ccc4c(c3)OCCO4)c2n1 | inactive: -3.21% |
| COC(=O)c1ccccc1NC(=O)c1nc(-c2ccc(Cl)cc2)n2c1CCCCC2 | inactive: 12.2% |
| CCOc1cccc(C(=O)Nc2cc(C)c(O)c(-c3nc4ncccc4o3)c2)c1 | inactive: 2.19% |
| COC(=O)c1ccc(NC(=O)CSc2nnc3c4ccccc4n(C(C)C)c3n2)cc1 | inactive: 12.1% |
| Cc1ccc(NC(=O)c2ccc(CN3CC(=O)N4CCCCC4C3=O)cc2)c(C)c1 (centres undefined) | inactive: -9.96% |
| NCCS(=O)O | inactive: 3.84% |
| COc1ccc(CNC(=O)CC(c2ccc(OC)cc2)N2Cc3ccccc3C2=O)cc1 (centres undefined) | inactive: -18.6% |
| COc1cccc(Cc2nc3ccccc3nc2SCC(=O)N2CCCc3ccccc32)c1 | inactive: -22.5% |
| Cc1ccc(-c2nn(CC(=O)NCc3ccccc3)c3c2cnc2ccc(F)cc23)cc1C | inactive: -10.3% |
| O=C(CSc1nccn1C1CCCC1)Nc1cc(C(F)(F)F)ccc1Cl | inactive: -14.6% |
| CCOC(=O)c1c(NC(=O)c2cc(=O)c3cc(C)cc(C)c3o2)sc(C)c1C | inactive: -0.122% |
| Cc1c(NC(=O)C(C)(C)Oc2ccc(Cl)cc2)cccc1-c1nc2ccccc2o1 | inactive: -17.1% |
| CCCNC(=O)CN1C(=O)COc2ccc(S(=O)(=O)N3CCC(C)CC3)cc21 | inactive: -3.51% |
| COc1ccc(OC)c(-n2c3c(cc(-c4nc(-c5ccc(Cl)cc5)cs4)c2=O)C(=O)CC(C)(C)C3)c1 | inactive: 21.3% |
| O=C(c1ccc2c(c1)N(Cc1ccccc1)C(=O)c1ccccc1S2(=O)=O)N1CCc2ccccc21 | inactive: -12.2% |
| COc1ccccc1CNC(=O)CSc1ccc(-c2sc(-c3ccccc3)nc2C)nn1 | inactive: -15.5% |
| O=S(=O)(c1ccc(Cl)cc1)c1nc(-c2ccco2)oc1SCc1ccccc1F | inactive: -25.5% |
| CCC(=O)N1CCc2cc(S(=O)(=O)NC(Cc3ccccc3)C(=O)Nc3ccccc3C)ccc21 (centres undefined) | inactive: -6.89% |

| SMILES | activation |
| --- | --- |
| CCOc1ccc(OCC)c(NC(=O)c2cc3ccccn3n2)c1 | inactive: 5.2% |
| CN(C(=O)CSc1nnc(COc2ccccc2)o1)c1ccccc1 | inactive: 19.9% |
| CC(=O)c1cccc(NS(=O)(=O)c2cc3c(cc2C)n(C)c(=O)c(=O)n3C)c1 | inactive: -18.9% |
| CCOCCCNC(=O)C(c1ccccc1)N1Cc2ccccc2C1=O (centres undefined) | inactive: -3.98% |
| O=C(Nc1sc2c(c1C(=O)Nc1ccccc1)CCC2)c1ccc(Br)cc1 | inactive: -0.469% |
| Cc1cccc(NC(=O)C(=O)NCC(c2ccc3c(c2)OCO3)N2CCN(c3ccccc3)CC2)c1 (centres undefined) | inactive: 9.42% |
| CC(C(=O)O)c1ccc(/C=C2\CCCCC2=O)cc1 (centres undefined) | inactive: 10.3% |
| C#CCn1c(=O)n(-c2cccc(Cl)c2C)c(=O)c2c3c(sc21)CN(C(C)=O)CC3 | inactive: 23.9% |
| Cc1ccc(C)c(N2CCN(CCCNC(=O)c3cnn(-c4ccc(F)cc4)c3C3CCN(C(=O)OC(C)(C)C)CC3)CC2)c1 | inactive: -9.1% |
| CCOc1ccc(CNC(=O)Cn2nc(C)c3c(C)n(-c4ccc(C)cc4)nc3c2=O)cc1 | inactive: -9.04% |
| CC(C)C(=O)Nc1nc2c(s1)CC(C(C)(C)C)CC2 (centres undefined) | active: 63.2% |
| COc1ccc(-c2cnc(C)o2)cc1S(=O)(=O)Nc1ccc(OC(F)(F)F)cc1 | inactive: -2.74% |
| Cc1ccc(C)c(CSc2nnc(C)n3c2cc2sccc23)c1 | inactive: -38.6% |
| O=C(CCS(=O)(=O)c1ccccc1)N(Cc1cccnc1)c1nc2ccc(F)cc2s1 | inactive: -15.4% |
| CC(=O)c1ccc(-n2c(CCC(=O)O)ccc2-c2cccs2)cc1 | inactive: -4.82% |
| O=C(Cn1c(=O)nc(-c2ccccc2)c2ccccc21)N1CCN(c2ccc(F)cc2)CC1 | inactive: -5.56% |
| COc1cc(OC)c(NC2=C(c3ccc(C(F)(F)F)cc3)C(=O)c3ccccc32)cc1Cl | inactive: -31.7% |
| Cc1noc(/C=C/c2ccccc2F)c1S(=O)(=O)N1CCC(C(=O)NCC(C)c2ccccc2)CC1 (centres undefined) | inactive: -6.56% |
| COc1cc(NC(=O)C(Cc2ccccc2)NS(=O)(=O)c2cccs2)cc(OC)c1 (centres undefined) | inactive: 28.8% |
| O=C(CS(=O)(=O)c1cccc2nsnc12)NCc1ccccc1 | inactive: 6.96% |
| CC(C)Oc1ccccc1NC(=O)CSc1nccn1C | inactive: -6.81% |

| SMILES | activation |
| --- | --- |
| OCCCn1c(-c2ccc(F)cc2)csc1=Nc1ccc(F)cc1 | inactive: -7.75% |
| Cc1ccc(-n2c(=O)c3c(c4cc(C)ccc4n3C)n(CC(=O)c3ccc(Cl)cc3)c2=O)cc1 | inactive: 0.384% |
| O=C(O)CSc1nc2ccc(NC(=O)COc3ccc(Cl)cc3)cc2s1 | inactive: 21.6% |
| Cc1sc2ncn(CC(=O)N(C)c3ccc(C(C)C)cc3)c(=O)c2c1S(=O)(=O)N1CCC(C)CC1 | inactive: -2.96% |
| COc1ccc(-c2noc(CC(=O)Nc3cc(OC)ccc3OC)n2)cc1 | inactive: -17.7% |
| Cc1ccc(Nc2nc3ccc(C(=O)c4ccccc4)cc3n3c(C)nnc23)c(C)c1 | inactive: -8.99% |
| CC1CCC(NC(=O)C2(C)Cc3ccccc3C(=O)N2Cc2ccc(Cl)cc2)CC1 (centres undefined) | inactive: -23.9% |
| CC(=O)c1cccc(NC(=O)CN2C(=O)CC(c3ccc(C)cc3C)=Nc3ccccc32)c1 | inactive: -10.6% |
| CCCn1c(=O)c2sccc2n2c(CCCC(=O)N3CCN(c4cccc(Cl)c4)CC3)nnc12 | inactive: -0.821% |
| CCCCN(CC)CCCNC(=O)c1cn(CC)c2ccc(S(=O)(=O)N3CCc4ccccc4C3)cc2c1=O | inactive: -1.47% |
| O=C(/C=C/c1ccc(Cl)cc1)N1CCC(c2nc3ccccc3o2)CC1 | inactive: -4.64% |
| COc1ccc(CCNCc2c(C(=O)O)c(C)n(Cc3cccc(Cl)c3)c2C)c(OC)c1OC | inactive: -2% |
| CCc1ccccc1NC(=O)CCC(=O)N1CC(C)Oc2ccc(C)cc21 (centres undefined) | inactive: -19.4% |
| CCc1cc2c(cc3c(=O)n(CC(=O)N4CCN(c5cccc(C)c5C)CC4)nc(CC)n32)s1 | inactive: 0.262% |
| Cc1ccc(C)c(N2CCN(S(=O)(=O)c3ccc(C(=O)N(C)C)s3)CC2)c1 | inactive: -13.2% |
| COc1ccc(CCNC(=O)c2cc3c(=O)n(C)c4ccccc4c3s2)cc1OC | inactive: 10.3% |
| O=C(Cn1cc(C(=O)c2ccccc2)c(=O)c2cc3c(cc21)OCCO3)Nc1ccc(F)c(F)c1 | inactive: 10.2% |
| CCOc1ccccc1CNS(=O)(=O)c1cc2c(cc1C)NC(=O)CO2 | inactive: -14.6% |
| Cc1ccccc1CNC(=O)CCC(=O)N1CCSc2ccccc21 | inactive: -14.9% |
| COc1ccc(NC(=O)c2c(NC(=O)COc3ccccc3)sc3c2CCCCC3)cc1 | inactive: 14.7% |
| O=C(Cn1cc(S(=O)(=O)Cc2ccccc2Cl)c2ccccc21)NCCc1ccccc1 | inactive: -5.5% |

| SMILES | activation |
| --- | --- |
| COc1ccc(NC(=O)CC2C(=O)N(c3cccc(OC)c3)C(=O)N2CCC2=CCCCC2)cc1 (centres undefined) | inactive: -6.98% |
| CCOc1ccc(CC(=O)NCc2ccc3c(c2)CCN3C(=O)c2ccccc2)cc1OCC | inactive: -22.6% |
| COc1ccc(NC(=O)CCNS(=O)(=O)c2ccc3c(c2)CCCC(=O)N3)cc1 | inactive: -0.458% |
| Cc1ccc(-c2cc3ncc4c(n3n2)-c2cc(Cl)ccc2OC4)cc1 | inactive: -17.5% |
| O=C(NCc1ccc(F)cc1)C(=O)Nc1ccc2nc3n(c(=O)c2c1)CCCCC3 | inactive: 6.72% |
| CCn1nnc2cc(C(=O)Nc3cc(C)ccc3C)ccc21 | inactive: -4.24% |
| Cc1ccccc1N1CC(c2nnc(NC(=O)c3ccco3)s2)CC1=O (centres undefined) | inactive: 1.44% |
| Cc1cccc(N2CCN(Cc3cc(=O)oc4cc(C)ccc34)CC2C)c1 (centres undefined) | inactive: -23.2% |
| CC(C)c1ccc(CNc2nc(-c3ccco3)nn2S(=O)(=O)c2ccc(F)cc2)cc1 | inactive: -11.3% |
| Cc1cccc(NC(=O)N2CCC(N3CCN(Cc4ccccc4)C(=O)C3=O)CC2)c1C | inactive: -15.6% |
| CCOc1ccc(OCC(=O)NCCS(=O)(=O)N2CCN(c3cccc(Cl)c3)CC2)cc1 | inactive: 22.6% |
| CC(C)(C)C1CCc2onc(C(=O)Nc3sc4c(c3C#N)CCCC4)c2C1 (centres undefined) | inactive: 7.19% |
| O=C(c1cc(-c2ccc(F)cc2)on1)N1CCN(c2ccc(F)cc2)CC1 | inactive: 9.88% |
| O=C(O)CC1CC(c2ccccc2)=NO1 (centres undefined) | inactive: -1.83% |
| CCCC1N=C2c3ccccc3N=C(SCC(=O)NCCc3ccc(Cl)cc3)N2C1=O (centres undefined) | inactive: -2.59% |
| Cn1nc(C(=O)N2CCN(c3ccccc3F)CC2)c2c1-c1ccccc1S(=O)(=O)C2 | inactive: -7.87% |
| O=C(CN1C(=O)c2cccc3cccc1c23)Nc1ccccc1Br | inactive: -1.06% |
| CCCCNS(=O)(=O)c1ccc2nc(-c3cccnc3)cc(C(=O)NC(C)C)c2c1 | inactive: -8.06% |
| CCn1c(C(=O)Nc2ccc(C)cc2C)cc2sc(Cl)cc21 | inactive: -16.4% |
| Cc1oc2ncnc(N3CCOCC3)c2c1C(=O)NCCc1ccccc1 | inactive: -12.4% |
| CCCOC(=O)CSc1nnc(-c2ccccc2)o1 | inactive: -4.13% |

Source: PubChem BioAssay AID1346428 (National Center for Advancing Translational Sciences (NCATS), 2018)
